Source: PMC4336329 (PLoS ONE, 2015)
The whole screen tested about 310,000 compounds, of which about 2,200 (0.71%) showed an effect of 50% or more. Effects have a minus sign here. Some of the results follow.

These compounds were tested against human ether-à-go-go-related gene (hERG) potassium channel (human, UniProt Q12809) (assay: primary screen, population patch clamp on CHO cells stably expressing hERG).
human ether-à-go-go-related gene (hERG) potassium channel, sequence (Q12809 whole entry, looked up): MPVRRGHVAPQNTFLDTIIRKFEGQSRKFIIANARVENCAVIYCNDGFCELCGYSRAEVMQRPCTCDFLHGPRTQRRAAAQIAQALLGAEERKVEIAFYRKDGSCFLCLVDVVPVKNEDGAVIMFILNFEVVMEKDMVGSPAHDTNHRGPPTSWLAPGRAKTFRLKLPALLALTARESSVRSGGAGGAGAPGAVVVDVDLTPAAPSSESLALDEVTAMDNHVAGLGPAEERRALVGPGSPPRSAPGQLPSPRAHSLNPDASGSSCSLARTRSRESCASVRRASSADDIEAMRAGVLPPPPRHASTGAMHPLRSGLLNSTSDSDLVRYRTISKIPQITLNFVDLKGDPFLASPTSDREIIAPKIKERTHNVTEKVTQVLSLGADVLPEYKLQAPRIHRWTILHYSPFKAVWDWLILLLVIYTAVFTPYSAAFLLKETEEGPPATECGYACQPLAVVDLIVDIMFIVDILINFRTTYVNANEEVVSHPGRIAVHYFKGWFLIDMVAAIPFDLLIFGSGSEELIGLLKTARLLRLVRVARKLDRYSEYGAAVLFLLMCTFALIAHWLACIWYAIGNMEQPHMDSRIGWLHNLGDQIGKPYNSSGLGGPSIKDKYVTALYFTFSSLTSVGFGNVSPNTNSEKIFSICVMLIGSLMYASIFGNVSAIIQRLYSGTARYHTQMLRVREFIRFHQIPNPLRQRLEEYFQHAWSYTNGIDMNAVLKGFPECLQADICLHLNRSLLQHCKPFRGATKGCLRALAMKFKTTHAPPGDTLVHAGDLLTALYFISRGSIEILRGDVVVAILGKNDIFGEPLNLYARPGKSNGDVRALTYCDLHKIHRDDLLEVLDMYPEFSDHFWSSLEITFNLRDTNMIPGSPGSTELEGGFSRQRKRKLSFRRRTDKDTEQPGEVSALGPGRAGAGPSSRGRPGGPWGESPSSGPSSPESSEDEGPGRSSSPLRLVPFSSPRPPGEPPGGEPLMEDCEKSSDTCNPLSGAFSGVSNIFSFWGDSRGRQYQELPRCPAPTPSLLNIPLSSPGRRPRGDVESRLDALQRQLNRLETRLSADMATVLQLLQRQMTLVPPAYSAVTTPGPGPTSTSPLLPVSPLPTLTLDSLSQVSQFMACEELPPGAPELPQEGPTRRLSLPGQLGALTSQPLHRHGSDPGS

Row | Compound | hERG current change (%, negative = inhibition) at 1uM [%]
1 | COc1ccc(-c2cc(=O)c3cc(OC)c(OC)cc3[nH]2)cc1 | 2.37
2 | COc1ccc(Br)cc1C(=O)NCc1cccnc1 | -15.8
3 | CC(C)NC(=O)c1cc(-c2ccc3c(c2)OCO3)on1 | 11.6
4 | CN(C)CC#CCC(O)(c1ccccc1)C1CCCCC1 (centres unmarked) | 13.3
5 | Cc1cccc(COc2coc(CN3CCN(C(=O)c4ccco4)CC3)cc2=O)c1 | -7.28
6 | O=C(Cc1ccc(S(=O)(=O)N2CCOCC2)s1)NCCC(c1ccccc1)c1ccccc1 | -3.02
7 | CCOc1ccc(N(C(C)C(=O)N2CCCC2)S(C)(=O)=O)cc1 (centres unmarked) | 13.2
8 | COCC(=O)Nc1cc(OC)c(Cl)cc1OC | 3.8
9 | CC(C)CC(=O)Nc1nnc(SCC(=O)NCC2CCCO2)s1 (centres unmarked) | 8.63
10 | CNC(=O)c1ccc(NC(=O)CC23CC4CC(CC(C4)C2)C3)cc1 | 19.5
11 | COc1cccc(CNC(=O)Cn2ncc3c(=O)oc4ccccc4c32)c1 | 3.34
12 | O=C(NCCc1ccc(Cl)cc1)c1cc2ccccn2n1 | 5.29
13 | CCc1ccc(NC(=O)CSc2nc(=O)n3cc(C)ccc3n2)cc1 | -4.72
14 | CSc1nc2nccc(-c3ccc(-c4ccccc4)cc3)n2n1 | 8.03
15 | Cc1ccc(N2C(=O)C3C4C=CC(CNC(=S)Nc5ccc(F)cc5)(O4)C3C2=O)cc1 (centres unmarked) | 2.93
16 | CCN(CC)CC(=O)Nc1c(C)cccc1C.Cl.O | -4.22
17 | COc1ccc(-c2[nH]ncc2CN(C)Cc2cnccn2)c(OC)c1 | 11.7
18 | COC(=O)C(C)Sc1nc2c(cnn2-c2ccc(C)cc2)c(=O)[nH]1 (centres unmarked) | 8.65
19 | CCOC(=O)c1c(NC(=O)c2ccccc2Cl)sc2c1CCc1ccccc1-2 | 16.6
20 | Cc1ccc(Cl)cc1NC(=O)COC(=O)C1CCCC1 | 4.08
21 | CCCCn1c2ccccc2c2cc(CC(N)=O)ccc21 | 10.9
22 | COc1ccc2cc(C3CC(c4ccco4)=NN3S(C)(=O)=O)c(Cl)nc2c1 (centres unmarked) | 8.22
23 | O=C(Nc1ccc([N+](=O)[O-])cn1)c1cccnc1 | 10
24 | Cn1c(=O)c2[nH]c(CCCC(=O)O)nc2n(Cc2ccccc2)c1=S | 14.1
25 | N#CC1(NC(=O)COC(=O)c2cc([N+](=O)[O-])ccc2N2CCCC2)CCCCC1 | 5.64
26 | Cc1c(C(C)(C)O)[nH]c2ccc(C(F)(F)F)cc12 | -3.91
